From the supplement of paper PMC7125110
± gives the standard error. Variants at the background level are over-represented here.

B1: glmS ribozyme (parent)
chain: AUAAAAGCGCCAGAACUACAGAAAUGUAGUUGACGAGGAGGAGGUUUAUCGAAUUUUCGGCGGAUGCCUCCAAA

Columns and labels:
Settings in all cases: with glucosamine-6-phosphate
glucosamine-6-phosphate [1] = variants of: B1; test: self-cleavage kobs at 40 uM GlcN6P; higher = faster cleavage; RNA array
Procedure, shortened: (§1)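 Tracking of barcoded ribozyme variants used a hybridised Cy3 probe at 37 °C, after in situ transcription by E. coli RNA polymerase on sequenced MiSeq chips. The flowed solution held 40 μM to 10 mM glucosamine-6-phosphate in HEPES/KCl/Mg(OAc)2 buffer, and imaging ran over ~14 h. kobs was taken from exponential decay fits of normalised per-tile medians, and kcat and KM from weighted Michaelis–Menten fits.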

glucosamine-6-phosphate [2] = variants of: B1; test: self-cleavage kobs at 2500 uM GlcN6P; higher = faster cleavage; RNA array
Procedure, shortened: as §1

glucosamine-6-phosphate [3] = variants of: B1; test: self-cleavage kobs at 10000 uM GlcN6P; higher = faster cleavage; RNA array
Procedure, shortened: as §1

glucosamine-6-phosphate [4] = variants of: B1; test: self-cleavage kobs at 640 uM GlcN6P; higher = faster cleavage; RNA array
Procedure, shortened: as §1

glucosamine-6-phosphate [5] = variants of: B1; test: self-cleavage kobs at 160 uM GlcN6P; higher = faster cleavage; RNA array
Procedure, shortened: as §1

| Variant | self-cleavage kobs at 40 uM GlcN6P (glucosamine-6-phosphate [1]) [s⁻¹] | self-cleavage kobs at 2500 uM GlcN6P (glucosamine-6-phosphate [2]) [s⁻¹] | self-cleavage kobs at 10000 uM GlcN6P (glucosamine-6-phosphate [3]) [s⁻¹] | self-cleavage kobs at 640 uM GlcN6P (glucosamine-6-phosphate [4]) [s⁻¹] | self-cleavage kobs at 160 uM GlcN6P (glucosamine-6-phosphate [5]) [s⁻¹] |
| --- | --- | --- | --- | --- | --- |
| AUAAAAGCGCCAGAACUACAGAAAUGUAGUUGACGAGGAGGAGGUGUAGCGAAUUUUCGGCGGAUGCCUCCAAA | < 1e-05 | 8.04e-05 ± 1.8e-05 | 7.66e-05 ± 1.7e-05 |  |  |
| AUAAAAGCGCCAGAACUACAGAAAUGUAGUUGACGAGGAGGAGGUUAAUCGCAUUUUCGGCGGAUGCCUCCAAA | < 1e-05 |  |  |  |  |
| AUAAAAGCGCCAGAACUACAGAAAUGUAGUUGACGAGGAGGAGGCUUAUCGAAUUUUCGUCGGAUGCCUCCAAA | < 1e-05 |  | < 1e-05 | < 1e-05 | < 1e-05 |
| AUAAAAGCGCCAGAACUACAGAAAUGUAGUUGACGAGGAGGAGGUGUAUCGAAUUUUCGGCAGAUGCCUCCAAA | < 1e-05 |  | < 1e-05 |  | < 1e-05 |
| AUAAAAGCGCCAGAACUACAGAAAUGUAGUUGACGAGGAGGAGGGUUCUCGAAUUUUCGGCGGAUGCCUCCAAA | < 1e-05 |  |  |  | < 1e-05 |
| AUAAAAGCGCCAGAACUACAGAAAUGUAGUUGACGAGGAGGAGGUAUAUCGAAUUUUCGGCUGAUGCCUCCAAA | < 1e-05 | < 1e-05 | < 1e-05 | < 1e-05 | < 1e-05 |
| AUAAAAGCGCCAGAACUACAGAAAUGUAGUUGACGAGGAGGAGGCUUAUCGAAUUUUCGGCGGACGCCUCCAAA | < 1e-05 |  |  |  |  |
| AUAAAAGCGCCAGAACUACAGAAAUGUAGUUGACGAGGAGGAGGUUAAUCGAAUUUUCGGCGGUUUCCUCCAAA | < 1e-05 |  |  |  | < 1e-05 |
| AUAAAAGCGCCAGAACUACAGAAAUGUAGUUGACGAGGAGGAGGUGUAUCGAAUUUUCGUCGGAUGCCUCCAAA | < 1e-05 |  | < 1e-05 |  | < 1e-05 |
| AUAAAAGCGCCAGAACUACAGAAAUGUAGUUGACGAGGAGGAGGUGUAUCGAAUUUUCGGGGGAUGCCUCCAAA | < 1e-05 |  |  | < 1e-05 | < 1e-05 |
| AUAAAAGCGCCAGAACUACAGAAAUGUAGUUGACGAGGAGGAGGUGUAUCGAUUUUUCGGCGGAUGCCUCCAAA | 0.000116 ± 2.4e-05 | 0.00253 ± 0.00059 | 0.00566 ± 0.00098 | 0.00141 ± 0.00032 |  |
| AUAAAAGCGCCAGAACUACAGAAAUGUAGUUGACGAGGAGGAGGUGUGUCGAAUUUUCGGCGGAUGCCUCCAAA | < 1e-05 | 5.4e-05 ± 1.2e-05 | 7.08e-05 ± 1e-05 |  |  |
| AUAAAAGCGCCAGAACUACAGAAAUGUAGUUGACGAGGAGGAGGCUUAUCGAAUUUUCCGCGGAUGCCUCCAAA | < 1e-05 | < 1e-05 | < 1e-05 | < 1e-05 | < 1e-05 |
